For assay [1], the target named is T1, murine IL-2R α-subunit, monomeric, with AcTev cleavage site and Avi His tag (mouse).
T1 construct: also called Mu IL-2R α
T1 chain: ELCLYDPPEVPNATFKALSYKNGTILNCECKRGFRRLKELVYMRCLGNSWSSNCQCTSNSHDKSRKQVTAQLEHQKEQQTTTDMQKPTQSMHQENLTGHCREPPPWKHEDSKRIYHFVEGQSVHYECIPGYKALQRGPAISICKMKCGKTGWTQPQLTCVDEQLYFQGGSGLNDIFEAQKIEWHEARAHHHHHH
Briefly: SPR Biacore T200, 25 C; IL-2R α-subunit amine-coupled on CM5 chip, fusion protein as analyte; steady state. How it is done:
(§1) Affinities were determined by steady state analysis.
In general terms: SPR reads the build-up and loss of mass on a sensor chip optically.

The target of assay [2] is T2, human IL-2R α-subunit, monomeric, with AcTev cleavage site and Avi His tag (human).
T2 construct: also called Hu IL-2R α; CD25
T2 chain: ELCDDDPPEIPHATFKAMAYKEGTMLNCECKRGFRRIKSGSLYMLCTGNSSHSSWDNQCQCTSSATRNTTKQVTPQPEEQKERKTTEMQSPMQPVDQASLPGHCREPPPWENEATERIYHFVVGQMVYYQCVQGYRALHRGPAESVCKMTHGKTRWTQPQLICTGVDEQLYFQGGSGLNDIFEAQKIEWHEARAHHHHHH
The assay is described as above. The protocol:
as §1

Assay [3] deals with T3, cynomolgus IL-2R α-subunit, monomeric, with AcTev cleavage site and Avi His tag (cynomolgus).
T3 construct: also called Cy IL-2R α
T3 chain: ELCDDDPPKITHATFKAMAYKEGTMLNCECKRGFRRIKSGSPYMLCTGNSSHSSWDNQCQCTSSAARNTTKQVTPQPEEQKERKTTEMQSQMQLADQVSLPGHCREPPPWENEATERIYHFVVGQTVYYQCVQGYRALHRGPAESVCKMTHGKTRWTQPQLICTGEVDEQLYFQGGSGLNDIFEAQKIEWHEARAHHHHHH
Described as above. The protocol: as §1

Assay [4] addresses T4, human IL-2R βγ heterodimer (IL-2R β-subunit-Fc(hole) / IL-2R γ-subunit-Fc(knob)) (human, biotinylated (site not stated)).
T4 construct: also called Hu IL-2R βγ; IL-2R βγ subunit-Fc fusion
Briefly: SPR Biacore T200, 25 C; biotinylated IL-2R βγ-Fc heterodimer on SA chip, fusion protein as analyte; kinetics, 1:1 fit. The protocol:
as §1

Assay [5] deals with T5, murine IL-2R βγ heterodimer (IL-2R β-subunit-Fc(hole) / IL-2R γ-subunit-Fc(knob)) (mouse, biotinylated (site not stated)).
T5 construct: also called Mu IL-2R βγ
The description is as above. The protocol:
as §1

Assay [6] has as its target T6, cynomolgus IL-2R βγ heterodimer (IL-2R β-subunit-Fc(hole) / IL-2R γ-subunit-Fc(knob)) (cynomolgus, biotinylated (site not stated)).
T6 construct: also called Cy IL-2R βγ
The description is as above. The protocol:
as §1

Assay [7] concerns the target T7, cynomolgus high affinity IL-2 receptor (CD25 with the β and γ chains) on cynomolgus peripheral blood T cells (cynomolgus monkey, UniProt H6WS54 22-272; Q38J85 27-551; A0A2K5VGJ6 23-369).
T7 sequence 1: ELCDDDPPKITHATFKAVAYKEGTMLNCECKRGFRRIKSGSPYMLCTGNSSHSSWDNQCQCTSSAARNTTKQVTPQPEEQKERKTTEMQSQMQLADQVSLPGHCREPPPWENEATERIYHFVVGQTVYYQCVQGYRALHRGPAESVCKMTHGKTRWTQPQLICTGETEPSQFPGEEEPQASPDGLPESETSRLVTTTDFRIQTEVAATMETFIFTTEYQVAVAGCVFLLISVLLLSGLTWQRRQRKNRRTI
T7 sequence 2: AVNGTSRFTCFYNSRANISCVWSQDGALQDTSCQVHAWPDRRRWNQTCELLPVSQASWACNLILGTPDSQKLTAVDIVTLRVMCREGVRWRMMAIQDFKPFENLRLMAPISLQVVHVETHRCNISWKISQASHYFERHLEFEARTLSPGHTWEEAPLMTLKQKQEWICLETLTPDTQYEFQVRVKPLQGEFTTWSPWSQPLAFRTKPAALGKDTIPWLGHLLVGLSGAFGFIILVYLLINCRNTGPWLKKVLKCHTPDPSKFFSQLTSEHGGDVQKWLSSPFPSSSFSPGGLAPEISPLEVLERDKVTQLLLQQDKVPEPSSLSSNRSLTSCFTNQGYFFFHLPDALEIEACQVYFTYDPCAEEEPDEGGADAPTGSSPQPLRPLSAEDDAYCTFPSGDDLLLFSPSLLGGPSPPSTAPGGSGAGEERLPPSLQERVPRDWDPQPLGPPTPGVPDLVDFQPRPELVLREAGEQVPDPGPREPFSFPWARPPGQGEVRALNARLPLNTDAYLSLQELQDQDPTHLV
T7 sequence 3: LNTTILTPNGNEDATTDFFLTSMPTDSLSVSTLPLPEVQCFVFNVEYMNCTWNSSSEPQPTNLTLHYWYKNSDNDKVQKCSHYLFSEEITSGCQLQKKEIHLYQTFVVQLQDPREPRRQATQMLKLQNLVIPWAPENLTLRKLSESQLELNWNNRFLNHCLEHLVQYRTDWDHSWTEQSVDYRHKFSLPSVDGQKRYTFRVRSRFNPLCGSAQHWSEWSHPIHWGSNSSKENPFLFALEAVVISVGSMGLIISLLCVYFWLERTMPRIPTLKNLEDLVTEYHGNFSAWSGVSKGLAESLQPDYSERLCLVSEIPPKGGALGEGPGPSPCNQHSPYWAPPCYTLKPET
Briefly: cell-based or functional assay.

In assay [8] the target is T8, human high affinity IL-2 receptor (IL-2RA/CD25, IL-2RB/CD122, IL-2RG/CD132) on human peripheral blood cells (human, UniProt P01589 22-272; P14784 27-551; P31785 23-369).
T8 sequence (looked up) 1: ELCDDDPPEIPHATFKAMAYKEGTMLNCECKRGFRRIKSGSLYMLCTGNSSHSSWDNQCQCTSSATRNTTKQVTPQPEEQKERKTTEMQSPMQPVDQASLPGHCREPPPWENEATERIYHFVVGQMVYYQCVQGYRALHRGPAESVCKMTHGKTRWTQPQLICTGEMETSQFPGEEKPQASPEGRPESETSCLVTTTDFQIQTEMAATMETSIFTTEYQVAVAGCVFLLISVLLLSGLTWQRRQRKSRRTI
T8 sequence (looked up) 2: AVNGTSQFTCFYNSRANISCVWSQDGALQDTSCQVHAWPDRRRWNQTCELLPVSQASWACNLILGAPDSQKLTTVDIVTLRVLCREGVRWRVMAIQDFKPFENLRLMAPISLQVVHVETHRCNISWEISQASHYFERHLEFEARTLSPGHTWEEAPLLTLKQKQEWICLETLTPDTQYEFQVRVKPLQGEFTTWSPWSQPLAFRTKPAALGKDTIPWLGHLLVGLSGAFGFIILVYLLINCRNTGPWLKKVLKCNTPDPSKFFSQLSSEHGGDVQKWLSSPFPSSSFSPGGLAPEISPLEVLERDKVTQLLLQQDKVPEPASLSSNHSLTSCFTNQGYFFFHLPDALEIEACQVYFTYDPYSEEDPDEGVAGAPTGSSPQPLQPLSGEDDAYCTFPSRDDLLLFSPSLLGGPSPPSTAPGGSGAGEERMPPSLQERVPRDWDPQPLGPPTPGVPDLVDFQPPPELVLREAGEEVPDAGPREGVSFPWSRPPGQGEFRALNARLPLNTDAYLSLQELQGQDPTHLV
T8 sequence (looked up) 3: T7 sequence 3 with A14T, T16A, S22T, R141H, S228T, P326A
Briefly: cell-based or functional assay.

Residue numbers refer to the chain shown, from its start. Names and notes keep the numbering of the source.

B1: DP47GS IgG-(IL-2 E95A)2 (other)
heavy: [about 100 residues omitted here][about 120 residues omitted here][human IgG1 Fc with changes omitted here]GGGGSGGGGSGGGGSAPASSSTKKTQLQLEHLLLDLQMILNGINNYKNPKLTRMLTFKFYMPKKATELKHLQCLEEELKPLEEVLNLAQSKNFHLRPRDLISNINVIVLPLKGSETTFMCEYADETATIVEFLNRWITFAQSIISTLT
light: [about 100 residues omitted here][about 100 residues omitted here]
notes: also called DP47 IgG-(IL-2E95A)2; DPS47GS IgG-(IL-2E95A)2
For B1, the equilibrium dissociation constant (Kd) (commonly the free concentration of one partner at which half of the binding sites on the other are occupied at equilibrium, for simple one-to-one binding) is 26 nM in assay [1]; 24 nM in assay [2]; 32 nM in assay [3]; 0.16 nM in assay [4]; 0.36 nM in assay [5]; 0.29 nM in assay [6].

B2: DP47GS IgG-(IL-2 N88D)2 (other)
heavy: [about 100 residues omitted here][about 120 residues omitted here][human IgG1 Fc with changes omitted here]GGGGSGGGGSGGGGSAPASSSTKKTQLQLEHLLLDLQMILNGINNYKNPKLTRMLTFKFYMPKKATELKHLQCLEEELKPLEEVLNLAQSKNFHLRPRDLISDINVIVLELKGSETTFMCEYADETATIVEFLNRWITFAQSIISTLT
light: [about 100 residues omitted here][about 100 residues omitted here]
notes: also called DP47 IgG-(IL-2N88D)2; DP47GS IgG-(IL-2N88D2)2
Turning to B2, the Kd in assay [1] was found to be 25 nM; in assay [2] it was 22 nM; in assay [3], 30 nM; in assay [4], 0.24 nM; in assay [5] it was 2.1 nM; in assay [6], 0.57 nM. For the same molecule, in assay [7], the “EC50 for pSTAT5a activation, cynomolgus CD4+ memory T effector” value was greater than 1000 ng/mL. Further, the “EC50 for pSTAT5a activation, cynomolgus activated Treg” value in assay [7] worked out at 0.7 ng/mL. For the same molecule, the “EC50 for pSTAT5a activation, cynomolgus memory Treg” value in assay [7] was 1.1 ng/mL. The “EC50 for pSTAT5a activation, cynomolgus naïve Treg” value in assay [7] worked out at 0.8 ng/mL. Besides, the “ED50 for pSTAT5a activation, human memory Treg” value in assay [8] was 11.4 pM. Besides, in assay [8], the “ED50 for pSTAT5a activation, human naïve Treg” value stood at 17.7 pM.

Source of the values: US20150218260A1 (Hoffmann-La Roche, published 2015).
